Data: PubChem BioAssay AID624202 (National Center for Advancing Translational Sciences (NCATS), 2012)
Screen size: about 380,000 compounds; about 4,000 (1.1%) were called active. This list was built around the results that the source calls inconclusive (neither active nor inactive); the mix of calls is not that of the screen. Calls come from the whole dose curve; as a rule, active = well fitted activation curve with a large enough effect; inconclusive = small, poorly fitted or top-dose-only effect; inactive = no such curve, though single readings can be large or run the other way. A potency beside an inconclusive call is a rough fit, not a confirmed value.

Test: qHTS Assay to Identify Small Molecule Activators of BRCA1 Expression; note: nearly all actives have a fitted effect of over 80% in size
Conditions: MCF7-BRCA1-FFLuc reporter, luminescence, 48 h; activation: at 46.1 µM (top of the series), scaled: vehicle 0%, 10 µM genistein 100% unless noted
Outline: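 MCF7 cells carrying a BRCA1-firefly luciferase reporter (2000 cells/well, phenol-red free MEM) were attached for 2 h at 37 °C, then given compounds for 48 h. Luminescence was read 15 min after luciferase reagent; activity normalized to genistein (10 microM) and DMSO.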
Potency is the fitted concentration of half-maximal effect; tags give direction and shape of the fitted curve.

SMILES	Potency	activation
CCOc1ccc(/C=C/c2nc3ccccc3n2S(=O)(=O)c2ccc(Br)cc2)cc1	inconclusive: 15.8 µM [activator, single point]	
CCC(=O)Nc1ccc(NC(=O)c2cccc(OC)c2)nc1	active: 11.2 µM	
CCCCNC(=O)C1CC(c2cccc([N+](=O)[O-])c2)=NO1 (centres undefined)	inconclusive: 17.8 µM [activator, partial curve, poor fit]	
O=C(c1ccco1)N1CCc2ccccc21	inconclusive: 11.2 µM [activator, partial curve, poor fit]	
COc1cccc(C(=O)Nc2ccc3c(c2)C(=O)c2ccccc2C3=O)c1	inconclusive: 1.58 µM [activator, full curve, poor fit]	
CN(Cc1ccccc1)C(=O)c1cc(-c2ccc(Br)cc2)on1	inconclusive: 11.2 µM [activator, partial curve, poor fit]	
CCN(C(=O)COC(=O)/C=C/c1nc2ccccc2s1)c1c(N)n(Cc2ccccc2)c(=O)[nH]c1=O		inactive: -5.3%
Cn1c(/C(C#N)=C/c2ccc(O)cc2)nc2ccccc21	active: 11.2 µM	
O=C(COn1nnc2ccccc21)N1CCN(Cc2ccccc2)CC1	inconclusive: 14.1 µM [activator, partial curve, poor fit]	
Cc1ccc(COc2ccc(/C=N/NC(=O)c3nnn(-c4nonc4N)c3COc3ccc(F)cc3)cc2)cc1	inconclusive: 1.58 µM [activator, full curve, poor fit]	
O=C(NC1=NCCS1)Nc1ccccc1	inconclusive: 1.26 µM [activator, partial curve, poor fit]	
COc1ccc2c(c1)CC/C(=C\C=C\c1ccccc1OC)C2=O	active: 11.2 µM	
COc1ccc(C(=O)C2C(=O)C(=O)N(Cc3ccco3)C2c2cccs2)cc1 (centres undefined)		inactive: 14.6%
O=C(c1cc(COc2ccc(F)cc2F)on1)N1CCSCC1	active: 7.94 µM	
Cc1cccc(CCNC(=O)c2cccc(N3CCCC3=O)c2)c1	inconclusive: 1.41 µM [activator, full curve, poor fit]	
CCOC(=O)Cc1nnc2c(Nc3ccc(Cl)cc3)nc3nonc3n12		inactive: -85.1%
Oc1c(C(Nc2ccccn2)c2ccccc2)ccc2cccnc12 (centres undefined)		inactive: -62.9%
O=C(NCCn1ccc2ccccc21)c1ccc(Cl)cc1	inconclusive: 14.1 µM [activator, partial curve, poor fit]	
COc1cccc(NC(=O)CN(C)C(=O)CNC(=O)c2sc3ccccc3c2Cl)c1	inconclusive: 12.6 µM [activator, partial curve, poor fit]	
CNc1ncc(C(=O)c2ccc(Cl)c(Cl)c2)s1	inconclusive: 11.2 µM [activator, partial curve, poor fit]	
CCCC(C)NC(=O)c1cccc(Oc2ccccc2)c1 (centres undefined)	inconclusive: 11.2 µM [activator, partial curve, poor fit]	
Cc1ccc(NC(=O)/C=C/c2ccc3c(c2)OCO3)nc1	active: 1.58 µM	
O=c1[nH]c(C2CCN(S(=O)(=O)c3ccc(S(=O)(=O)NC4CC4)cc3)CC2)nc2c1nnn2Cc1cccc(F)c1		inactive: -61.9%
C(=N\Nc1ccc2ccccc2n1)/c1ccc2c(c1)OCO2		inconclusive: -29.5% [activator]
Nc1c(C(=O)Nc2ccccc2)sc2nc(N3CCOCC3)c3c(c12)CCCC3	active: 12.6 µM	

SMILES	Potency	activation
CC(/C=N/NC(=O)c1cccs1)=C\c1ccco1	inconclusive: 11.2 µM [activator, partial curve, poor fit]	
O=S(=O)(c1ccc(-c2csc(-c3cccnc3)n2)cc1)N1CCCCC1		inactive: -50.7%
COc1ccc(CN=Cc2c(O)[nH]c3ccccc23)cc1	inconclusive: 12.6 µM [activator, partial curve, poor fit]	
CC(C)C(N)c1csc(Nc2nncc3ccccc23)n1 (centres undefined)	inconclusive: 14.1 µM [activator, single point]	
Cc1ccc(-c2cn3c(n2)SCC3)cc1	inconclusive: 2.82 µM [activator, full curve, poor fit]	
COc1ccc(N=C2C(=S)N(c3ccc(OC)cc3)C(=NS(=O)(=O)c3ccccc3)N2c2ccccc2)cc1	active: 3.55 µM	
COc1ccc(CNC(=O)c2cc(C3CC3)nc3c2cnn3C(C)C)cc1		inactive: -8.18%
Cc1nc(NC(=O)CCc2ccccc2)sc1C	inconclusive: 11.2 µM [activator, partial curve, poor fit]	
CN1CCN(/N=C/c2ccc(-c3ccc([N+](=O)[O-])cc3)o2)CC1	inconclusive: 11.2 µM [activator, partial curve, poor fit]	
Cc1ccccc1C(=O)Nc1ccnn1C1CCN(C(=O)c2cnsn2)CC1		inactive: -1.03%
O=C(/C=N/NC(=O)c1ccc(Cl)cc1Cl)c1ccccc1	inconclusive: 22.4 µM [activator, single point]	
CCN1CCN(c2ncnc3c2cnn3-c2ccc(Cl)cc2)CC1	inconclusive: 11.2 µM [activator, partial curve, poor fit]	
CC(C)(C=O)C1=CC(=O)c2ccccc2C1=O		inactive: -75.2%
CCCCOC(=O)c1ccc(Nc2ncnc3nc[nH]c23)cc1	active: 10 µM	
Cc1ccc2oc3nc(C)c(C(=O)O)cc3c(=O)c2c1	active: 2.82 µM	
C=CCNCCCCOc1ccc(OCc2ccccc2)cc1	inconclusive: 2 µM [activator, full curve, poor fit]	
CNC1(C)[C@H]2CC[C@H](C2)C1(C)C (some centres undefined)		inactive: 15.1%
CCCc1nnc(NC(=O)CCC(=O)NCc2ccc(Cl)cc2Cl)s1		inactive: -5.8%
CCN(C(=O)c1ccco1)c1nc(-c2ccc(OC)cc2)cs1	inconclusive: 12.6 µM [activator, partial curve, poor fit]	
O=C(Nc1ccc(N2CCOCC2)c([N+](=O)[O-])c1)c1ccco1	inconclusive: 8.91 µM [activator, partial curve, poor fit]	
COc1cc(S(=O)(=O)N2CCN(Cc3cccs3)CC2)ccc1NC(C)=O		inactive: -41.7%
O=C1c2ccccc2NC(c2cnc3ccccc3n2)N1O (centres undefined)	inconclusive: 2 µM [activator, partial curve, poor fit]	
COc1ccc(/C(N)=N/OC(=O)c2ccc3c(c2)OCO3)cc1OC	inconclusive: 1.12 µM [activator, full curve, poor fit]	
O=C(CSc1ncn[nH]1)NCCC(c1ccccc1)c1ccccc1		inactive: -15.9%
O=C(NCc1ccco1)c1cccc2c(-c3ccc(F)c(F)c3)coc12	inconclusive: 4.47 µM [activator, partial curve, poor fit]	

SMILES	Potency	activation
CCOC(=O)c1cc2c(nc1N)CC(C)(C)OC2	inconclusive: 31.6 µM [activator, single point]	
COc1ccc(C(=O)N(Cc2ccco2)Cc2cccs2)c(OC)c1		inactive: 6.99%
S=C1NC2=C(CCC/C2=C\c2ccccc2)C(c2ccccc2)N1 (centres undefined)		inactive: -37.5%
CC(=O)c1cccc(NC(=S)NC(=O)CC(C)(C)C)c1	inconclusive: 14.1 µM [activator, single point]	
COc1ccc(-c2cn(-c3ccc(C)cc3)c(S(=O)(=O)CC(=O)Nc3ccc(F)cc3)n2)cc1		inactive: 40.7%
COc1ccc(O)c(C(=O)CC(=O)c2ccccc2C)c1	inconclusive: 2 µM [activator, partial curve, poor fit]	
CC1(C(=O)Nc2cnc3ccccc3c2)CCN1C(=O)CCc1ccccc1 (centres undefined)		inactive: -18.4%
O=C(CN1CCN(c2ccc(O)cc2)CC1)Nc1ccc2c(c1)OCCCO2		inactive: -2.26%
CC(C)(C)c1ccc(OCc2ccc(C(=O)NN)o2)cc1	inconclusive: 0.355 µM [activator, full curve, poor fit]	
COc1ccc2nc(NC(=O)CCNC(=O)c3ccco3)sc2c1	inconclusive: 2 µM [activator, full curve, poor fit]	
O=C(Nc1ccsc1C(=O)O)c1cccc(C(F)(F)F)c1	inconclusive: 15.8 µM [activator, partial curve, poor fit]	
CCOC(=O)N1CCN(C(=S)NC(=O)C2CCCC2)CC1		inactive: -1.99%
C(=C\c1nc(-c2ccncc2)no1)/c1ccccc1	inconclusive: 0.891 µM [activator, full curve, poor fit]	
Brc1ccc(-c2nnc(-c3ccccc3Br)o2)cc1	inconclusive: 0.501 µM [activator, full curve, poor fit]	
CCCCc1ccc(NC(=O)Nc2cccnc2)cc1	inconclusive: 20 µM [activator, partial curve, poor fit]	
CCCCN(C)C(=O)c1cn(C)c2ccc(S(=O)(=O)N3CCC(C)CC3)cc2c1=O		inactive: 0%
c1ccc(Sc2ncnc3c2oc2ccccc23)nc1	active: 11.2 µM	
COc1cccc(C(=O)O/N=C(\N)c2ccncc2)c1	active: 10 µM	
O=C(C[n+]1cccc(Br)c1)c1ccc2ccccc2c1	inconclusive: 17.8 µM [activator, single point]	
CC(C)(C)n1ncc2c(=O)n(CC(=O)c3ccc(Cl)cc3)cnc21	active: 2.24 µM	
O=C(/C=C/c1ccc(Cl)cc1Cl)c1ccc[nH]1	inconclusive: 11.2 µM [activator, partial curve, poor fit]	
CCOC(=O)c1ccc(NC(=O)N2CCc3ccccc32)cc1	inconclusive: 1 µM [activator, full curve, poor fit]	
CCCN1CNc2c(c(=O)[nH]c(=S)n2CCc2cccs2)C1		inactive: 4.73%
Brc1ccc2nc(-c3c[nH]c4ccccc34)cn2c1	inconclusive: 1 µM [activator, full curve, poor fit]	
